# In PMC6919601, “Identification of Plasmodium dipeptidyl aminopeptidase allosteric inhibitors by high throughput screening” (PLoS ONE, 2019):
# Hit rate of the full screen: of about 110,000 compounds, about 230 (0.21%) showed an effect of 50% or more. The list shows a part of the results.
# Target: DPAP1 (Plasmodium falciparum, UniProt Q8IIJ9)
# Test: primary screen, percent inhibition; read by cleavage of a fluorogenic dipeptide substrate; higher = more effect of the substance
# Set-up: species or system P. falciparum D10 trophozoite lysates; single well
# 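Note: 30 min substrate incubation versus DMSO and 10 µM JCP410 controls.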
# Chain of DPAP1 (Q8IIJ9 whole entry, looked up): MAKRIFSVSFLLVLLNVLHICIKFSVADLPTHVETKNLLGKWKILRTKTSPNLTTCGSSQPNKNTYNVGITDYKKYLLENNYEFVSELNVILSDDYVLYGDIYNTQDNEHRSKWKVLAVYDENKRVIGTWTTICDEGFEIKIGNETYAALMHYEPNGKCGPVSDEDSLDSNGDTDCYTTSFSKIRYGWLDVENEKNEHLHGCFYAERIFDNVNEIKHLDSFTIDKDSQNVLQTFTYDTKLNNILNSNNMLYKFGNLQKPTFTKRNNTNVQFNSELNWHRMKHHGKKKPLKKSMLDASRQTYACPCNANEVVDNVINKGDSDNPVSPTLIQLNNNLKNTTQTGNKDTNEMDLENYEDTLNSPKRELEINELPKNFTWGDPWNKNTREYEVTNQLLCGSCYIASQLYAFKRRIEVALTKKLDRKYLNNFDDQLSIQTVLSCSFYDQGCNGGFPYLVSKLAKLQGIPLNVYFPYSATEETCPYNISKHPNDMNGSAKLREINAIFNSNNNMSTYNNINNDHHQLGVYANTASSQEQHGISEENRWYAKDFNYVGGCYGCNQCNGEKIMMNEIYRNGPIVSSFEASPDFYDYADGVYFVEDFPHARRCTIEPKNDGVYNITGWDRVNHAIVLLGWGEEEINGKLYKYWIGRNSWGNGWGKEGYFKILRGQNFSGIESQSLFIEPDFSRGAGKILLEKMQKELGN
row,SMILES,% Inhibition @ 10 uM [%]
1,OCCN(Cc1ccccc1)Cc1cccc(Cl)c1Cl,4.28
2,O=C(CN(c1ccccc1)S(=O)(=O)c1ccccc1)Nc1ccc(F)cc1,3.89
3,CN1C/C(=C/c2cccnc2)C(=O)/C(=C/c2cccnc2)C1,-5.51
4,CCOC(=O)c1c2c(n(C)c1C)C=C(Br)C(=O)C2=O,2.17
5,CCN(CC)CCCNC(=O)CN1C(=O)CSc2nc(C)cc(C)c21,2.65
6,CCC(C)NC(=O)CN1N=C(c2ccc(Cl)cc2)CCC1=O (centres unmarked),-3.22
7,Cn1c(=O)c2c(nc(Cl)n2CCc2ccccc2)n(C)c1=O,-1.92
8,COc1cccc(N(CC(=O)Nc2cc(C)ccc2C)S(C)(=O)=O)c1,-9.04
9,COc1ccc(NC(=O)CN(Cc2ccccc2)S(C)(=O)=O)cc1Cl,2.49
10,CCc1ccc(CN2CCN(Cc3cc(Br)ccc3O)CC2)cc1,-3.41
11,COc1ccc(N(CC(=O)N(C)C)S(=O)(=O)c2ccccc2)cc1Cl,3.66
12,Cc1ccc(-c2nc(C3CCCCC3)no2)cc1,10.9
13,Cc1nn(C(=O)CCCC(=O)NC2CCCCC2)c2ccccc12,-4.94
14,O=C(NCC1CCCO1)c1cnn2c(C(F)(F)F)cc(-c3ccc(Br)cc3)nc12 (centres unmarked),0.661
15,COc1cc(CN2CCN(C(=O)c3cccc(Cl)c3)CC2)cc(OC)c1OC,6.1
16,Cc1cccc2c1-c1sc(C(=O)NCCCN3CCCC(C)C3)cc1CO2 (centres unmarked),-6.68
17,O=C(OCc1ccccc1)c1sc2ccccc2c1Cl,-4.15
18,c1ccc(CN2CCN(C3CN4CCC3CC4)CC2)cc1 (centres unmarked),1.57
19,CCCC(=O)NCc1nc2ccccc2n1CC(=O)c1ccccc1,3.34
20,Cc1c(Cl)cccc1-c1ccc(C(=O)NCc2ccco2)o1,6.22
21,CCCOC(=O)c1ccc(-c2ccc(/C=C3/C(=O)NC(=O)C(C#N)=C3C)o2)cc1,-6.86
22,COc1ccc(-c2noc(CC(=O)N3CCN(C(=O)c4ccco4)CC3)n2)cc1,-0.256
23,Cc1nnc2c(SC3CCCCC3)nc3ccccc3n12,16
24,COc1ccc(CCn2cc3c(c2-c2ccccc2Cl)c(=O)n(C)c(=O)n3C)cc1OC,-4.95
25,Cc1ccc2nc(-c3ccc(N4C(=O)CC(N5CCCC(CO)C5)C4=O)cc3)sc2c1 (centres unmarked),7.54
26,Cc1cc(NC(=O)C23CC4CC(CC(C4)C2)C3)nc2c1c(=O)oc1ccccc12,-6.29

row,SMILES,% Inhibition @ 10 uM [%]
1,OCCNc1ncc(-c2ccccc2)cn1,-0.636
2,CSc1nc(=S)n(-c2ccccc2)c(C)c1C(C)=O,-4.01
3,CC(=O)Nc1sc2c(c1C(c1cccc(Br)c1)N1CCOCC1)CCCC2 (centres unmarked),-0.123
4,CCc1ccc(-c2cn3c(n2)sc2cc(C(=O)NCc4ccco4)ccc23)cc1,0.807
5,O=C(CCN(Cc1ccccc1)Cc1ccccc1)c1ccccc1,0.878
6,CCc1ccc(/C(O)=C/C=N/c2cccc(O)c2)cc1,2.18
7,O=C(COc1ccc(Cl)cc1)NC1C2CC3CC(C2)CC1C3 (centres unmarked),-0.582
8,COC(=O)C1=CN(Cc2ccc(F)cc2)C=C(C(=O)OC)C1c1ccc(C)s1,-1.48
9,CCO/C=C1\C(=O)N(c2ccc(C)cc2)C(=O)c2ccccc21,5.24
10,Cc1ccc(OCCCOc2ccc(/C=C3\C(=N)N4N=C(S(C)(=O)=O)SC4=NC3=O)cc2)cc1,-1.54
11,COc1ccc2occ(CC(=O)Nc3nnc(SC)s3)c2c1,0.19
12,Nc1ccc(C(=O)NC2CCCCC2)cc1,3.56
13,COc1cc(CN2CCN(C)CC2)ccc1O,-2.56
14,O=C1CC(c2ccccc2)c2ccc(O)cc2O1 (centres unmarked),-1.97
15,COc1nc(Cl)cc(C)c1C(=O)NCc1ccc(Cl)cc1,-3.72
16,CCOC(=O)c1c(NC(=O)Cc2coc3c(C)c(C)ccc23)sc(C)c1C,-0.671
17,Cc1ccnc(NC(=O)CN(C)S(=O)(=O)c2cccc3nsnc23)c1,-3.46
18,Clc1cccc(N2CCN(Cc3cccs3)CC2)c1,-0.192
19,CCN(CC)CCCCOc1ccc(Br)cc1,-5.84
20,Oc1ccc(Br)cc1CN1CCN(Cc2ccc3c(c2)OCO3)CC1,-5.26
21,COc1ccccc1Oc1ccc(S(=O)(=O)NCc2ccccn2)cc1,-4.39
22,O=C(O)CCCN1C(=O)C(c2ccccc2)Oc2cccnc21 (centres unmarked),-1.97
23,COCc1[nH]nc2c1C(c1ccc(OCCN3CCOCC3)c(OC)c1)C(C#N)=C(N)O2 (centres unmarked),0.674
24,Nc1nc2ccccc2n1C(=O)c1ccco1,0.778
25,O=C(NCc1ccc2c(c1)OCO2)C1CCN(S(=O)(=O)c2cccs2)CC1,5.1
26,COc1cccc(-c2nn(C)c3sc(C(=O)NCc4ccco4)cc23)c1,2.9

row,SMILES,% Inhibition @ 10 uM [%]
1,CCCOc1ccc(Cc2c(Cl)nc(SC)nc2NC)cc1,-2.87
2,O=C(Nc1ccc(Cc2ccc(NC(=O)C3CC3)cc2)cc1)C1CC1,0.316
3,COC(=O)c1sc(S(=O)(=O)N2CCCCC2)c(C(=O)OC)c1C,1.52
4,CCOC(=O)C1=C(C)OC(N)=C(C#N)C1c1cc(OCC)ccc1OCC (centres unmarked),-6.25
5,CCOc1ccc(-n2c(C)c(C(C)=O)c3cc(OC)ccc32)cc1,-4.03
6,Cc1cccc(CNC(=O)CCc2ccc(-n3cnc4cccnc43)cc2)c1,-7.88
7,CC(NC(=O)C1CCC(CNS(=O)(=O)c2ccccc2)CC1)c1ccccc1 (centres unmarked),5.47
8,Cc1ccc(NS(=O)(=O)c2ccc(N)cc2)cc1C,-3.97
9,COc1cc(OC)cc(C(=O)N2CCN(Cc3ccc(C)cc3)CC2)c1,-4.59
10,COc1ccc(C2CC(=O)CC(=O)C2)cc1,-8.7
11,Cc1cc(-c2ccc(C)c(S(=O)(=O)N(Cc3ccc(F)cc3)Cc3cccnc3)c2)on1,4.87
12,CC(=O)c1cccc(NC(=O)C23CC4CC(C2)CC(n2cncn2)(C4)C3)c1,-10.6
13,N#C/C(=C/c1ccc2c(c1)OCO2)c1ccc(Cl)cc1,2.05
14,O=C(O)c1cccc([N+](=O)[O-])c1C(=O)Nc1cccc(O)c1,-6.83
15,CC(C)Cn1nnc2sc3c(c2c1=O)CCC(C(C)(C)C)C3 (centres unmarked),0.758
16,COc1nnc(-c2ccc(C)c(S(=O)(=O)NCc3ccccc3)c2)c2ccccc12,5.75
17,C=CCN1C(=O)N/C(=C/c2cc(Cl)c(OC)c(Cl)c2)C1=O,-4.14
18,O=[N+]([O-])c1ccccc1CNC1CCCCCC1,-3.32
19,O=S(=O)(NCCSc1ccc(Cl)cc1)c1ccc2c(c1)OCCO2,-3.92
20,CC1CCCC(NCCCn2ccnc2)C1 (centres unmarked),4.75
21,Fc1ccc(-c2nnc(-c3ccc(Cl)cc3)o2)cc1,0.815
22,CCCCn1c(CN2CC(C)OC(C)C2)nc2c1c(=O)[nH]c(=O)n2C (centres unmarked),-2.92
23,Cn1c(OCc2ccc3c(c2)OCO3)nc2c1c(=O)n(Cc1ccccc1F)c(=O)n2C,25.6
24,O=C(CN(C1CCCCC1)S(=O)(=O)c1ccc(Cl)cc1)N1CCCCC1,-3.85
25,CC(=O)c1cnn(-c2cc(Oc3cccc(C)c3)ncn2)c1C,-5.34
26,Cc1cc(-c2ccc(C)c(S(=O)(=O)N(C)C3CCCCC3)c2)on1,2.35

row,SMILES,% Inhibition @ 10 uM [%]
1,Cc1cccc(C)c1NC(=O)c1ccc(F)cc1,-7.5
2,CCOC(=O)C1=C(CN2CCC(c3ccccc3)C2)NC(=O)NC1c1ccccc1 (centres unmarked),2.12
3,CCC(C)Nc1nc2c(-c3ccc(Cl)cc3)nnn2c2ccccc12 (centres unmarked),-1.21
4,Cc1c(C(=O)NCCCN2CCCCCC2)oc2ccc3nc(N(C)C)sc3c12,11.8
5,O=C(O)c1cccc(N2C(=O)/C(=C\c3ccc(Cl)cc3)SC2=S)c1,2.26
6,O=S(=O)(Nc1ccc2c(c1)OCCO2)c1cccc(Cl)c1,-3.87
7,O=C(NCCOc1ccccc1)c1cc(S(=O)(=O)N2CCOCC2)ccc1F,3.47
8,Cc1ccc(OCC(=O)Nc2ccc(Cl)c(NC(=O)c3ccccc3)c2)cc1,9.94
9,O=C(NC1(C(=O)NC2CCCC2)CCCCC1)c1ccccc1,-4.43
10,CCN(CC)C(=O)C1c2cc(OC)c(OC)cc2C(=O)N(C)C1c1ccc(OC)c(OC)c1 (centres unmarked),2.06
11,CCOC(=O)C1CCCN(Cc2ccccc2F)C1 (centres unmarked),-1.77
12,CC(C)C[C@H](NC(=O)c1ccc(-c2ccccc2Cl)cc1Cl)C(=O)NCC#N,-5.2
13,CCOC(=O)c1c(C)c(-c2ccccc2)n(CC(=O)N2CCN(CC)CC2)c1C,1.51
14,O=C(CCn1ccc2cc(S(=O)(=O)N3CCCC3)ccc21)NC1CCCc2ccccc21 (centres unmarked),-10.9
15,O=Nc1c2nc3ccccc3[nH]c-2c2ccccc12,-1.69
16,Cc1ccc(-n2nnc3ccccc3c2=O)cc1C,1.8
17,COCCNC(=O)C1CCN(c2nnc(-n3cccc3)s2)CC1,-4.04
18,O=C(CCc1ccccc1)N1CCCN(C(=O)CCc2ccccc2)CC1,-5.14
19,COc1cc(CN2CCN(c3ccc([N+](=O)[O-])cc3)CC2)cc(Br)c1O,-4.35
20,COc1ccc(-c2csc(Nc3ccccc3OC)n2)cc1Br,7.42
21,CC(=O)Nc1ccccc1/C=C/c1ccc2cccc(OC(C)=O)c2n1,4.88
22,COc1ccc(CO/C(O)=C2\C(C)=Nc3nnnn3C2c2cc(Cl)ccc2OC(F)F)cc1 (centres unmarked),-0.465
23,Cc1ccc(-n2nc3c(c2NC(=O)c2ccc(OC(C)C)cc2)CS(=O)(=O)C3)c(C)c1,-0.812
